This passage reports growth inhibition call results from the antibiotic and cytotoxicity screens of Wong et al. (2023).

The list shows a part of the results.

This assay deals with S. aureus RN4220. Nature of the assay: growth inhibition call (relative growth <= 0.2). The conditions noted are these: 50 µM.
For the molecule `C[C@H](CO)N1C[C@H](C)[C@H](CN(C)C(=O)NC2CCCCC2)Oc2c(NC(=O)c3cnccn3)cccc2C1=O`, the growth inhibition call is “inactive”. Turning to `C[C@H]1CCCCO[C@H](CN(C)C(=O)Cc2ccccc2)[C@@H](C)CN([C@@H](C)CO)C(=O)c2cc(NC(=O)Cc3ccccc3)ccc2O1`, the growth inhibition call is “inactive”. As for `COc1ccc(NC(=O)Nc2ccc3c(c2)CC(=O)N([C@@H](C)CO)C[C@H](C)[C@@H](CN(C)Cc2ccc(Oc4ccccc4)cc2)O3)cc1`, the growth inhibition call is “inactive”. Consider `COc1ccc2c(O[C@H]3CCCC[C@@H]3OC)nccc2c1-n1ccnc1-c1c[nH]c2c(N)c(F)cc(C#N)c12`, for which the growth inhibition call was “inactive”.

As for `C[C@H]1CN([C@@H](C)CO)C(=O)c2cccc(NC(=O)C3CC3)c2O[C@H]1CN(C)S(=O)(=O)c1cn(C)cn1`, the growth inhibition call is “inactive”. Turning to `Cc1ccc(N2NC(=O)/C(=N/O)C2=O)cc1C`, the growth inhibition call was “inactive”. `CCCNC(=O)N(C)C[C@H]1Oc2ncc(-c3ccc(C(=O)N(C)C)cc3)cc2C(=O)N([C@H](C)CO)C[C@@H]1C`: the growth inhibition call was “inactive”. For the molecule `CC(=O)OCC(=O)O[C@@H]1[C@H]2[C@@H](OC(=O)c3ccccc3)[C@@H](C)C[C@]2(O)[C@H](OC(C)=O)[C@@]2(C)[C@H](OC(C)=O)[C@]1(OC(C)=O)C[C@H]1C(=O)C(C)(C)C[C@@H]12`, the growth inhibition call is “inactive”. With `O=C(Nc1ccc(C(F)(F)F)cc1)Nc1ccc2c(c1)[C@H]1C[C@@H](CC(=O)N3CCc4ccccc4C3)O[C@H](CO)[C@H]1O2`, the growth inhibition call was “inactive”. For the molecule `C[C@@H]1CN([C@@H](C)CO)C(=O)c2cc(Br)cnc2O[C@H]1CN(C)Cc1ccc2c(c1)OCO2`, the growth inhibition call is “inactive”. The same measure for `CO[C@H]1/C=C\O[C@@]2(C)Oc3c(C)c(O)c4c(O)c(c(/C=N/N=C/N5CCCCC5)c(O)c4c3C2=O)NC(=O)/C(C)=C\C=C/[C@H](C)[C@H](O)[C@@H](C)[C@@H](O)[C@@H](C)[C@H](OC(C)=O)[C@@H]1C`: “active”.

Turning to `O=C(NC[C@@H](O)CO)[C@]1(CCS(=O)(=O)c2ccccc2)N=C(c2ccc(OCCCO)cc2)O[C@@H]1c1ccccc1`, the growth inhibition call is “inactive”.

As for `FC(F)(F)CN1CCNCC1`, the growth inhibition call is “inactive”. Take `CCc1c(O)cc(O)c(C(=O)c2ccc(OCCN3CCOCC3)c(OC)c2)c1CC(=O)N(CCOC)CCOC`: the growth inhibition call is “inactive”. As for `COCC#Cc1ccc2c(c1)O[C@@H](CN(C)S(=O)(=O)c1cccc(F)c1)[C@H](C)CN([C@@H](C)CO)S2(=O)=O`, the growth inhibition call is “inactive”. Take `N[C@@H](C(=O)O)C1=CCC=CC1`: the growth inhibition call is “inactive”. As for `C[C@@H]1CN([C@H](C)CO)C(=O)c2cc(NC(=O)NC3CCCCC3)ccc2O[C@@H]1CN(C)Cc1ccc(Oc2ccccc2)cc1`, the entry is “inactive”. As to `CC(C)NC(=O)N(C)C[C@H]1Oc2ccc(NC(=O)C3CCCCC3)cc2C(=O)N([C@H](C)CO)C[C@H]1C`, the growth inhibition call was “inactive”.

On to `COc1cc2c(cc1-c1coc3c4c(c(OC)cc3c1=O)OC(C)(C)CC4)OCO2`, for which the growth inhibition call is “inactive”. As for `O=C(C[C@@H]1C[C@@H]2c3cc(NC(=O)Nc4ccc(C(F)(F)F)cc4)ccc3O[C@@H]2[C@H](CO)O1)NCc1cc(F)ccc1F`, the entry is “inactive”; as for `O=C(CCNNC(=O)c1ccncc1)NCc1ccccc1`, “inactive”; as for `COc1ccc(NC(=O)N(C)C[C@H]2Oc3ncc(C#CC(C)C)cc3C(=O)N([C@@H](C)CO)C[C@@H]2C)cc1`, “inactive”. Consider `C[C@@H]1CN([C@@H](C)CO)C(=O)c2cc(NC(=O)C3CC3)ccc2O[C@H]1CN(C)S(=O)(=O)c1cccs1`, for which the growth inhibition call was “inactive”. For `O=C(C[C@@H]1CC[C@@H]2[C@H](COC[C@@H](O)CN2S(=O)(=O)c2ccc(Cl)cc2)O1)NCCN1CCCC1`, the growth inhibition call is “inactive”. Regarding `C[C@H](CO)N1C[C@H](C)[C@H](CN(C)Cc2ccc(C(F)(F)F)cc2)Oc2ccc(NC(=O)CCC(F)(F)F)cc2C1=O`, the growth inhibition call was “inactive”.

On to `C[C@@H]1CN([C@@H](C)CO)C(=O)Cc2cc(NC(=O)Nc3cccc4ccccc34)ccc2O[C@H]1CN(C)C(=O)Nc1ccc2c(c1)OCO2`, for which the growth inhibition call was “inactive”. Turning to `C[C@H]1CCCCO[C@H](CN(C)C(=O)Nc2cccc3ccccc23)[C@@H](C)CN([C@@H](C)CO)C(=O)c2cc(NS(=O)(=O)c3cccs3)ccc2O1`, the growth inhibition call was “inactive”. Take `COc1cc(O)cc(OC)c1OC`: the growth inhibition call was “inactive”. Regarding `O=C(O)c1cccc(-n2cnnn2)c1`, the growth inhibition call was “inactive”.

As for `O=C(O[C@@H]1O[C@@H]2COC(=O)c3cc(O)c(O)c(O)c3-c3c(cc(O)c(O)c3O)C(=O)O[C@H]2[C@H](OC(=O)c2cc(O)c(O)c(O)c2)[C@H]1OC(=O)c1cc(O)c(O)c(O)c1)c1cc(O)c(O)c(O)c1`, the growth inhibition call was “inactive”. For the molecule `C[C@@H]1CN([C@H](C)CO)C(=O)c2cc(NS(=O)(=O)c3cn(C)cn3)ccc2O[C@@H]1CN(C)Cc1ccc(C(=O)O)cc1`, the growth inhibition call is “inactive”. As to `COc1ccc(S(=O)(=O)N(C)C[C@@H]2Oc3ccc(NC(=O)Cn4cnnn4)cc3CC(=O)N([C@H](C)CO)C[C@@H]2C)cc1`, the growth inhibition call was “inactive”.

Consider `CC1(C)SC2C(NC(=O)C(C(=O)[O-])c3ccccc3)C(=O)N2C1C(=O)[O-].[Na+].[Na+]` (stereo not given), for which the growth inhibition call is “active”. As to `Cc1cc(C)c2nnc(SCC(=O)O)n2n1`, the growth inhibition call is “inactive”. On to `OC[C@H]1COCc2cnnn21`, for which the growth inhibition call is “inactive”.

As for `O=C(NCCO)c1cc2ccccc2c(=O)s1`, the growth inhibition call was “inactive”. With `COc1ccc(C#Cc2cnc3c(c2)C(=O)N([C@@H](C)CO)C[C@H](C)[C@@H](CN(C)CC2CCOCC2)O3)cc1`, the growth inhibition call was “inactive”. Turning to `COCCNc1cc(NC(=O)N2CCCc3cc(CN4CCN(C)CC4=O)c(C=O)nc32)ncc1C#N`, the growth inhibition call is “inactive”. With `C[C@H](CO)N1C[C@H](C)[C@H](CN(C)C(=O)c2ccccc2)OCCCC[C@H](C)Oc2ccc(NC(=O)NC3CCCCC3)cc2C1=O`, the growth inhibition call was “inactive”. In the case of `CN1CCN(C(=O)C[C@H]2CC[C@H]3[C@@H](COC[C@@H](O)CN3C(=O)C3CCCC3)O2)CC1`, the growth inhibition call was “inactive”.
